Assay results: patent US9839646B2, “Small molecule enhancer for dendritic cell cancer vaccines” (priority 2011, dated 2017)

Tests used:
[1] = Mouse toxicity, plasma vs. dose, 5-day oral dosing; assay type: in vivo, C57BL/6 mice; settings: for body weight over 5 day treatment: mouse, in vivo; for survival: oral gavage daily for 5 days, up to 40 mg/kg ARI-4175, up to 10 mg/kg PT-100
From the text: Mouse Toxicity Plasma Vs. Dose Figures. […]. Plasma concentrations are approximately proportional to dose over the range tested.

MB49 = MB49 subcutaneous tumor model; assay type: in vivo; settings: for anti-tumor activity: 20 μg dose
From the text: Mice were orally gavaged on days 3-7 and 10-14. Tumor volume was monitored by caliper measurements. […].

HCT116 tumor cells = test: Cytotoxicity of splenocytes from treated mice; assay type: cell-based, C57BI/6 non-tumor-bearing mice; settings: mice treated with ARI-4175 and/or cetuximab
DLD-1 = settings: 10 nM-200 μM, three days, alone or in combination with cetuximab
HCT-116 = settings: 10 nM-200 μM, three days, alone or in combination with cetuximab
in vivo = settings: Sprague Dawley, rat; for MTD: po
DLD-1 xenograft tumors = test: Colon cancer xenograft in nude mice
HCT-116 xenograft tumors = test: Colon cancer xenograft in nude mice
[2] = Maximum tolerated dose study in Sprague Dawley rats
prolyl oligoproteases = test: Inhibition of prolyl oligoproteases (FIG. 1); assay type: biochemical
immune system = test: Immune stimulation (FIG. 1)
tumors = test: PT-100 tumor regression, early stage and established tumors (FIG. 2, 3)
[3] = combination with cetuximab, not statistically significant
[4] = single agent, ARI-4175 100 μg oral q.d or b.i.d, cetuximab 200 μg per week i.p.

## CC(C)(C)[C@H](N)C(=O)N1CCC[C@H]1B(O)O [ARI-4175, t-butylGly-boroPro]
[1]
  body weight over 5 day treatment: significant weight loss
  survival: 100%
MB49; oral gavage days 3-7 and 10-14
  anti-tumor activity: induce anti-tumor activity
MB49; 200 μg dose, oral gavage days 3-7 and 10-14
  full regression: 5 of 5
HCT116 tumor cells
  cytotoxicity of splenocytes against HCT116 tumor cells: enhanced
DLD-1
  cytotoxicity in cell culture: did not show significant cytotoxicity
HCT-116
  cytotoxicity in cell culture: did not show significant cytotoxicity
In vivo
  MTD at 48 h: 0.01 mg/kg
  MTD: 0.1 mg/kg
DLD-1 xenograft tumors; [3]
  tumor size: further decrease in tumor size
DLD-1 xenograft tumors; [4]
  tumor growth: significantly blocked
HCT-116 xenograft tumors; [3]
  tumor size: further decrease in tumor size
HCT-116 xenograft tumors; [4]
  tumor growth: significantly blocked
[2]; 0.25 mg/kg PO
  deaths: one death

## C[C@H](N)C(=O)N1CCC[C@H]1B(O)O [Ala-boroPro]
Prolyl oligoproteases
  inhibition of prolyl oligoproteases: inhibit
Immune system
  stimulation of the immune system: does not stimulate

## CC(C)[C@H](N)C(=O)N1CCC[C@H]1B(O)O [PT-100, Val-boroPro, reference compound]
[1]
  body weight over 5 day treatment: significant weight loss
  survival: 100%
MB49; oral gavage days 3-7 and 10-14
  anti-tumor activity: induce anti-tumor activity
MB49; 200 μg dose
  toxicity: toxic
Prolyl oligoproteases
  inhibition of prolyl oligoproteases: inhibit
Immune system
  stimulation of the immune system: potent immune stimulator
In vivo
  MTD: 0.05 mg/kg
[2]; 0.01 mg/kg SQ, 48 hours post-dose
  deaths: did not result in any deaths
[2]; 0.025 mg/kg SQ
  deaths: no deaths
[2]; 0.05 mg/kg PO
  adverse effects: no adverse effects
[2]; 0.05 mg/kg SQ, within first 24 hours, six rats
  deaths: at least one animal death
[2]; SQ, rats, maximum dose with 100% survival
  MTD: 0.025 mg/kg
tumors; PT-100+Dendritic Cell (DC) vaccine
  regression of established tumors: produces regression
tumors; PT-100 alone
  regression of early stage tumors: complete regression
  regression of established tumors: not of established tumors
